Test results as given in PMC4336329 (PLoS ONE, 2015).
Among all 310,000 compounds or so, about 14,000 (4.5%) showed an effect of 50% or more. The effect is printed as a negative number. Some of the results follow.

These compounds were tested against human ether-à-go-go-related gene (hERG) potassium channel (human, UniProt Q12809) (assay: primary screen, population patch clamp on CHO cells stably expressing hERG).
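Further: peak tail current of the secondary pulse compared with the same well before compound.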

Sequence of human ether-à-go-go-related gene (hERG) potassium channel (Q12809 whole entry, looked up): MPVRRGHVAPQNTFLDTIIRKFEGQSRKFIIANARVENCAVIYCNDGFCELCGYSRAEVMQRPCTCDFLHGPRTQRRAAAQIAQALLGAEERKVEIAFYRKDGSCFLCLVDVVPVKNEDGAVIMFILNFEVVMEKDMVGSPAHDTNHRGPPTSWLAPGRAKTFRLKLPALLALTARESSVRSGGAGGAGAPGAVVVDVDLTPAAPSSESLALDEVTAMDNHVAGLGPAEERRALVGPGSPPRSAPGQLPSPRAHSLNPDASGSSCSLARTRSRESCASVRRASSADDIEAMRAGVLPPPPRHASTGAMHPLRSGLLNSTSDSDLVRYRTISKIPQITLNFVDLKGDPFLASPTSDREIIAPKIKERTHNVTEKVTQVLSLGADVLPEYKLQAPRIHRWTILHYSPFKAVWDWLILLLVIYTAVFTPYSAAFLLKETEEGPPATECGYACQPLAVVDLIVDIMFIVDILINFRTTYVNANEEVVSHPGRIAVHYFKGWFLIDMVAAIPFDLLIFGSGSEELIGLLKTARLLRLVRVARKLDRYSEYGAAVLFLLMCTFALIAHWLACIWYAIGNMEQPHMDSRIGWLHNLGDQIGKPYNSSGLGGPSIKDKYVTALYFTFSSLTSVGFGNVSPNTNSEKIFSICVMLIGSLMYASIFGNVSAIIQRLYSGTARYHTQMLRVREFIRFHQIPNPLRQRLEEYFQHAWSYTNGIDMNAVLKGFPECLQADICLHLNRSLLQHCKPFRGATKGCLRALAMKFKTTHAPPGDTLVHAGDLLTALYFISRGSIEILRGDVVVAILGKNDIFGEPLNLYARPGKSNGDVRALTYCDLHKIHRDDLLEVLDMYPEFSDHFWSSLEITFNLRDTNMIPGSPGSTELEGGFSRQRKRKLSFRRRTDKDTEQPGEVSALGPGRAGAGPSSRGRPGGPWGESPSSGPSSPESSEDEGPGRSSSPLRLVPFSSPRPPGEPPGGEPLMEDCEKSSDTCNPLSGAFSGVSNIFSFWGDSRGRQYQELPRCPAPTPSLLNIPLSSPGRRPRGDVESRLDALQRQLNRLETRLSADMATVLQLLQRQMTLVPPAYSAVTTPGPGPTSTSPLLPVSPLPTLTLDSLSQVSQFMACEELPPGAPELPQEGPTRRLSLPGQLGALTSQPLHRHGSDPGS

Row | Compound | hERG current change (%, negative = inhibition) at 10uM [%]
1 | CCOC(=O)c1ccc(NC(=S)NCCCN2CCOCC2)cc1 | 41.4
2 | O=C(CCN1CCCO1)NC1CCCc2c1cnn2-c1ccccc1F (centres unmarked) | 20.7
3 | O=C(Nc1ccccc1Cl)NC1(C(=O)NCCCN2CCOCC2)CCCCC1 | 4.9
4 | CC(=O)Nc1cccc(C(=O)OCC(=O)NNC(=O)c2ccc([N+](=O)[O-])cc2)c1 | -6.28
5 | CCCc1cc(=O)[nH]c(SCC(=O)c2cc(C)n(C)c2C)n1 | -6.04
6 | COc1cccc(O[C@@H]2O[C@@H]3COC(C)(C)O[C@H]3[C@H](O)[C@H]2NC(C)=O)c1 | -3.8
7 | COC(=O)c1ccsc1NC(=O)CSc1nnnn1Cc1ccccc1 | -9.26
8 | O=C(OCc1ccccc1Cl)c1ccccc1C(=O)c1ccccc1 | -2.97
9 | O=C(C1=NN[C@@H]2C(=O)N(c3cccc(F)c3)C(=O)[C@H]12)C(c1ccccc1)c1ccccc1 | -19.2
10 | CCOc1ccc(/C(O)=C2/C(=O)C(=O)N(CC3CCCO3)C2c2ccc(C)o2)cc1 (centres unmarked) | 9.85
11 | OC1(c2ccc(F)cc2)CCN(Cc2nnnn2Cc2cccs2)CC1 | -28.7
12 | Cc1[nH]c2ccccc2c1C(=O)NS(=O)(=O)Nc1ccccc1 | 9.15
13 | Cc1ccc(CN(C(=O)c2sc3ccccc3c2Cl)C2CCS(=O)(=O)C2)cc1 (centres unmarked) | -3.31
14 | CCC(=O)NCCNc1ccc([N+](=O)[O-])cn1 | -1.79
15 | CCOc1ccc(-c2nc(-c3ccc(OC)cc3)no2)cc1OCC | 15.3
16 | COCCNC(=O)c1onc(CCl)c1C(=O)OC | 5.37
17 | Cc1cccc(C(=O)Nc2nnc(SCC(=O)Nc3ccc4c(c3)oc3ccccc34)s2)c1 | 23.5
18 | Cc1cc(NC(=O)c2ccc(Cn3cc([N+](=O)[O-])cn3)o2)no1 | 5.01
19 | CCOC(=O)C1=C(C)N(CC(C)C)C(=O)/C1=C\c1cccs1 | 16.4
20 | COc1ccccc1NC(=O)c1cc(S(=O)(=O)N2CCCC2)cn1C | -19.8
21 | COc1cccc(/C=N/Nc2cc(-n3nc(C)cc3-c3ccccc3)ncn2)c1O | 7.09
22 | COc1ccc(Cc2noc(CN3CCCN(C4Cc5ccccc5C4)CC3)n2)cc1OC | -67

Row | Compound | hERG current change (%, negative = inhibition) at 10uM [%]
23 | Cc1ccc(-n2c(SCC(=O)N3c4ccccc4Sc4ccccc43)nnc2-c2ccncc2)cc1 | -3.06
24 | COc1ccc(S(=O)(=O)Nc2ccc(Oc3ncccn3)c(Cl)c2)cc1 | -13.3
25 | CC1(C)NC(=O)N(CC(=O)N2CCC(Cc3ccccc3)CC2)C1=O | -19
26 | CCCN(CCC)Cc1c(C(=O)N/N=C/c2ccco2)nnn1-c1nonc1N | -5.99
27 | COc1ccc(C)cc1NC(=O)COC(=O)C1CCN(C(=O)c2ccc(Cl)cc2)CC1 | -79.1
28 | COc1cc(NC(=O)Nc2cccc(C(C)=O)c2)cc(OC)c1OC | -14.4
29 | CCOc1ccc(-c2nnc(NC(=O)C3CCCC3)o2)cc1 | 12.3
30 | O=C(COc1ccc(Cl)cc1)NC1=NN(c2ccccc2)C(=O)C1 | -4.52
31 | CC(C)C(=O)Nc1cccc(NC(=O)CCN2C(=O)c3ccccc3S2(=O)=O)c1 | -1.86
32 | CC(=O)c1ccc(S(=O)(=O)N(C)CC(=O)Nc2ccc(C)cc2)cc1 | -0.949
33 | O=C(NCc1ccco1)C(c1ccc(F)cc1)N(CC1CCCO1)C(=O)Cn1nnc2ccccc21 (centres unmarked) | -0.232
34 | C=C(C)Cn1c(C)cc(C)c(S(=O)(=O)c2cccc(C)c2)c1=O | -3.17
35 | O=C(Cc1ccc(S(=O)(=O)N2CCOCC2)s1)NCCc1ccc(F)cc1 | -12.2
36 | O=C(O)CSc1nnnn1-c1ccc2c(c1)OCCO2 | -12.5
37 | CCOC(=O)c1[nH]c2ccccc2c1CCCN1C(=O)c2ccccc2C1=O | -11.9
38 | Cc1ccccc1C(=O)N1CCC(C(=O)Nc2nc3ccc(F)cc3s2)CC1 | -42.8
39 | Nc1cc(Cl)ccc1C(=O)OCC(=O)NC1CCCCC1 | 35.7
40 | N[C@@H](Cc1c[nH]c2ccc(O)cc12)C(=O)O | 9.57
41 | CC(C)N1C(=O)C(=O)N(CC(=O)N(C)c2ccccc2)C1=O | 2.89
42 | Cc1c(C(=O)NN)sc(-c2ccccc2)c1C#N | 5.38
43 | CCOC(=O)c1c(C)n(C)c2ccc(OCC(O)CN3CCC(C)CC3)cc12.Cl (centres unmarked) | -15.8
44 | CC(C)C(=O)Nc1cccnc1 | 17.3
